The whole screen tested about 280,000 compounds, of which about 1,100 (0.39%) were called active. The inconclusive results got no clear call from the source; some entries with a clear call stand among them for comparison. The call rests on the fitted dose curve; in most records, active means well fitted inhibition curve with a large enough effect; inconclusive means small, poorly fitted or top-dose-only effect, or effect the other way; inactive means flat fitted curve, though single readings scatter. No potency is given beside an inconclusive call; the fits are too rough.
What follows are compounds tested against Microtubule-associated protein tau (Homo sapiens) (UniProt P10636) (assay: qHTS for Inhibitors of Tau Fibril Formation, Fluorescence Polarization). Conditions: K18 P301L tau heparin fibrillization, Alexa594 FP, 6 h; series mostly up to 57.7 µM; activity, negative = inhibition: at the top concentration.
In short: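 FP of Alexa 594-tau after heparin (20 uM) induction. Substrate: human K18 P301L, 15 uM unlabeled, 0.24 uM labeled. Buffer 100 mM sodium acetate pH 7. 6 hr, 37 C.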
Further: nearly all actives have a fitted effect of over 55% in size.
On the % scale 0 is the no-effect control and ±100 the full control effect; potency means the concentration at half of the fitted maximal effect; tags describe the fitted curve by direction and shape.

UniProt P10636, sequence (P10636 whole entry, looked up): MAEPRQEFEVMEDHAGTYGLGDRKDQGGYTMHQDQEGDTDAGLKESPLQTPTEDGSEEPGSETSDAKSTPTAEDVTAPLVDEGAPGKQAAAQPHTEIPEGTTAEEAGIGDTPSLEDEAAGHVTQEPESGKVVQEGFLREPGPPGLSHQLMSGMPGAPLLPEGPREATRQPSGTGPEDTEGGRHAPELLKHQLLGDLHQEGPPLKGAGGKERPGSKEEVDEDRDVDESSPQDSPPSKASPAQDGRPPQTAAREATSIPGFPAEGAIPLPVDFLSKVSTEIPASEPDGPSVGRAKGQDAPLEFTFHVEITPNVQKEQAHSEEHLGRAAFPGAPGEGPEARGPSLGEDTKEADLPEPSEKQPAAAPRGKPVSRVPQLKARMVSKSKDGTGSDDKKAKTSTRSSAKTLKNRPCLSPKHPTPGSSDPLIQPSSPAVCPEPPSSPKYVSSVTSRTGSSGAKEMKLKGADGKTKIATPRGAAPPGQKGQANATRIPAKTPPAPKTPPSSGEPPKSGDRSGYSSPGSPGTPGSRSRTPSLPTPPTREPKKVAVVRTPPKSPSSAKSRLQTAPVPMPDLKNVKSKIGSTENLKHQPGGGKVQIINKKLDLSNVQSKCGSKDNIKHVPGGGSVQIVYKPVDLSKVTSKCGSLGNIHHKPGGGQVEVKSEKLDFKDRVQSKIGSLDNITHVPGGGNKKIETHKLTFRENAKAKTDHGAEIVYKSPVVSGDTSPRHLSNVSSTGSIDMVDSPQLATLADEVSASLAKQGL

SMILES	activity, negative = inhibition	Potency
FC(F)(F)c1ccc(Cl)c(NC(=S)N/N=C/c2ccccc2Cl)c1	inactive: -12.7%	–
c1ccc(CCCNc2ncnc3nc[nH]c23)cc1	inactive: 6.49%	–
Cc1ccc(-c2cc(-c3ccccc3)[nH]c(=S)c2C#N)cc1	inactive: 0.423%	–
COc1ccc(C(CNC(=O)COc2ccc(Cl)c(C)c2)N2CCOCC2)cc1 (stereo unspecified)	inactive: 6.55%	–
CCCCSc1ncnc2c1c(-c1ccccc1)cn2-c1cccc(F)c1	–	inconclusive [inhibitor, full curve, poor fit]
CCCn1nc([N+](=O)[O-])c(C(C#N)c2nc3ccccc3o2)c(Cl)c1=O (stereo unspecified)	–	inconclusive [inhibitor, single point]
c1ccc2sc(Cc3nnc4n3CCCCC4)nc2c1	inactive: -0.669%	–
CCc1nc2c(c(SC)nn2-c2ccccc2)c(N)c1C(=O)OC	–	inconclusive [inhibitor, partial curve]
COC(=O)/C(=N\Nc1ccccc1)Sc1nnc(-c2ccc(OC)cc2)n1C	inactive: 2.77%	–
Cc1ccccc1C(=O)Nc1cccc(-c2nc3cccnc3s2)c1	inactive: 0.794%	–
O=C(NC1CCCCC1)C(=S)N1CCOCC1	inactive: -2.8%	–
C/C(=N\Nc1cccc2cccnc12)c1ccc(N)cc1	–	inconclusive [inhibitor, single point]
C=C(C)C(O)C(CC/C=C(\C)C(=O)OCC)OC (stereo unspecified)	inactive: -1.67% [at 11.6 µM]	–
O=C(N/N=C/c1ccc(N2CCOCC2)o1)c1cccc([N+](=O)[O-])c1	–	inconclusive [inhibitor, partial curve]
CCOc1ccccc1N(C)C(=O)c1sc2nc3n(c(=O)c2c1C)CCCC3	–	inconclusive [inhibitor, partial curve]
NC(=O)c1ccc(NC(=O)COC(=O)/C=C/c2ccc3c(c2)OCO3)cc1	–	inconclusive [inhibitor, partial curve]
O=C(Nc1ccccc1OC(F)F)c1oc2ccccc2c1COc1ccccc1	–	inconclusive [inhibitor, partial curve]
Cc1ccc2c(CC(=O)Nc3ccc(S(=O)(=O)N4CCC(C)CC4)cc3)coc2c1	–	active: 10 µM
COC(=O)c1ccccc1NC(=O)Cn1nc(C)c2nn(-c3ccc(Cl)cc3)c(C)c2c1=O	inactive: -0.557%	–
CCOC(=O)c1sc(NC(=O)Nc2cccc(Cl)c2)cc1C	–	inconclusive [inhibitor, single point]
O=c1cc(-c2ccccc2Cl)oc2c(NS(=O)(=O)c3ccccc3OC(F)(F)F)ccc(O)c12	–	inconclusive [inhibitor, single point]
N#Cc1c(NC(=O)CSc2nnnn2C2CCCC2)sc2c1CCCC2	inactive: -0.833%	–
CCNC(=S)N1CCN(c2cccc(C(F)(F)F)c2)CC1	inactive: -0.648%	–
Cc1c(C(=O)NCC2COc3ccccc3O2)oc2ccc(S(=O)(=O)N(C)C3CCCCC3)cc12 (stereo unspecified)	–	inconclusive [inhibitor, single point]

SMILES	activity, negative = inhibition	Potency
Cc1ccc(-c2nn(-c3ccccc3)cc2/C=N/NC(=O)c2ccc3c(c2)OCO3)cc1	–	inconclusive [inhibitor, single point]
COc1ccc(NC(=O)CSc2nc3ccccc3n2CC(=O)NCc2ccc(F)cc2)cc1	–	inconclusive [inhibitor, partial curve]
Nc1c2c(nc3ccc(Br)cc13)N(c1ccccc1)CC2	inactive: 18.6%	–
CCn1c(CSc2n[nH]c(N)n2)nc2cc(C(=O)O)ccc21	inactive: -3.51%	–
N#C/C(=C\c1ccccc1)C(=O)N(c1ccccn1)C1CCCCC1	–	inconclusive [activator, single point]
O=Nc1ccc(O)c2ncccc12	–	inconclusive [inhibitor, partial curve]
Nc1ccc(N=Nc2ccccc2)c2ccccc12	–	inconclusive [inhibitor, single point]
CC1=CC(c2ccccc2)NC(=S)N1 (stereo unspecified)	inactive: 11.3%	–
COc1ccc(S(=O)(=O)N2CCC(C(=O)Nc3ccc(Oc4ccccc4)cc3)CC2)cc1OC	–	inconclusive [inhibitor, partial curve, poor fit]
Cc1cc(C)c2c(=O)n(CC(=O)Nc3ccc(Cl)cc3)sc2n1	–	inconclusive [inhibitor, partial curve]
Cc1ccccc1NC(=O)CSc1ncc2c(n1)-c1ccccc1N(C)S2(=O)=O	–	inconclusive [inhibitor, partial curve, poor fit]
CC(=O)Nc1cccc(Oc2cc(C#N)c(C#N)cc2N2CCCCCC2)c1	–	inconclusive [inhibitor, single point]
CN(C)CCCN(C(=O)COc1ccc(Cl)cc1)c1nc2c(F)cccc2s1	–	inconclusive [inhibitor, single point]
COc1ccc(Nc2cc(C(=O)NCCCN(C)Cc3ccccc3)c3ccccc3n2)cc1OC	–	inconclusive [activator, full curve]
CCOC(=O)c1c(NC(=O)CSc2nnnn2-c2ccc(OC)cc2)sc(C)c1C	–	inconclusive [inhibitor, partial curve]
C=CC[C@@H]1C=C[C@H](O/N=C\[C@@H](C)[C@H](OCc2ccccc2)C(C)C)[C@H](CO)O1	–	inconclusive [inhibitor, full curve, poor fit]
CC1=C(C(=O)Nc2ccc(Cl)cc2)C(c2cccs2)n2nc(SCc3cccc(Cl)c3)nc2N1 (stereo unspecified)	–	inconclusive [inhibitor, single point]
CCC1=Nc2cc(C(=O)NCCc3ccccc3)ccc2Sc2ccc(Cl)cc21	–	inconclusive [inhibitor, single point]
Cc1cccc(NC(=O)CSc2nnc(-c3ccccc3C)o2)c1	–	inconclusive [inhibitor, single point]
COCCOC(=O)C1=C(C)OC(N)=C(C#N)C1c1ccco1 (stereo unspecified)	inactive: 0.928%	–
CC(C)(CCl)C(=O)Nc1ccc(Sc2ccc(F)cc2)cc1	–	inconclusive [inhibitor, full curve, poor fit]
CCOC(=O)c1ccc(NC(=O)c2nc[nH]c2C(=O)N[C@@H](CC(C)C)C(=O)OC(C)(C)C)cc1	–	inconclusive [inhibitor, full curve]
COC(=O)c1cccc(CN2C(=O)SC(Nc3ccccc3)C2=O)c1 (stereo unspecified)	–	inconclusive [inhibitor, partial curve, poor fit]
CCOC(=O)c1cnn2c(N)c(C#N)nnc12	inactive: 3.2%	–

SMILES	activity, negative = inhibition	Potency
Cc1ccc(S(=O)(=O)N2CCN(Cc3ccccc3C(F)(F)F)CC2)cc1	inactive: -2.42%	–
COc1cccc(COC(=O)c2nn(-c3ccccc3)nc2N)c1	–	inconclusive [inhibitor, partial curve]
Fc1ccccc1/C=N/Nc1ncnc2ccccc12	–	inconclusive [inhibitor, single point]
COc1ccc(-c2c(C)nn3c(N4CCN(Cc5ccccc5)CC4)cc(C)nc23)cc1OC	–	inconclusive [activator, full curve, poor fit]
CCN(CC)c1ccc(NC(=O)CCS(=O)(=O)c2cccc3nsnc23)c(C)c1	–	inconclusive [activator, single point]
COc1ccccc1CCNC(=O)c1cc2c(=O)n3cccc(C)c3nc2n1C	inactive: 1.49%	–
COc1ccc2c(c1)Cc1sc(NC(=O)c3ccccc3)nc1-2	inactive: -7.74%	–
COCCn1c(C)cc(O)c(C(c2ccccc2)N2CCN(c3ccc(F)cc3)CC2)c1=O (stereo unspecified)	inactive: -13.3%	–
O=c1c2ccccc2nc(COc2ccccc2)n1/N=C/c1ccc(O)cc1O	inactive: -4.46%	–
NCCCCCCCCCCN	inactive: 3.21%	–
COC(=O)c1c(SC)nc2ccccc2c1OCc1cccc(C)c1	–	inconclusive [inhibitor, partial curve, poor fit]
CCCCC1=CC2=C(OC(C)=O)C(=O)C(C)(OC(=O)CC)C(=O)C2=CO1 (stereo unspecified)	–	inconclusive [inhibitor, single point]
COc1ccc(CC(=O)NCc2ccc3c(c2)cc(C)n3C)cc1	inactive: 9.3%	–
O=C(NCCc1ccc(Cl)cc1)c1ccc(CS(=O)(=O)Cc2ccc(F)cc2)o1	–	inconclusive [inhibitor, partial curve, poor fit]
CCCN(Cc1ccccc1)C(=S)Nc1ccc(SC(F)F)cc1	–	inconclusive [inhibitor, single point]
CC1CCN(CCCNC(=O)c2ccc3c(=O)n(Cc4ccc(Cl)cc4)c(=S)[nH]c3c2)CC1	–	inconclusive [inhibitor, single point]
COc1ccccc1-c1cc(C(F)(F)F)nc(N2CCOCC2)n1	–	inconclusive [inhibitor, single point]
S=C(Nc1ccc2c(c1)OCO2)Nc1ccc2c(c1)OCO2	–	inconclusive [inhibitor, single point]
Cc1cc(N2CCCC2)nc(SCC(=O)c2ccccc2)n1	inactive: 2.33%	–
Cc1[nH]n(-c2ccccc2)c(=O)c1C(c1cccc([N+](=O)[O-])c1)c1c(C)[nH]n(-c2ccccc2)c1=O	–	inconclusive [inhibitor, partial curve]
O=C(CSc1nc2ccccc2s1)NNC(=O)Nc1ccc(Cl)c(Cl)c1	–	active: 20 µM
Cc1cc(N2CCC(C)CC2)nc2cccc(O)c12	–	inconclusive [activator, partial curve, poor fit]
Cn1c(CCNC(=O)c2cccs2)n[nH]c1=S	inactive: -2.77%	–
